According to ChEMBL document CHEMBL1201862, “PubChem BioAssay data set” (2004):
Calls of active or inactive are those of the source. No stated cut-off is given here; in the data, active = GI50 up to about 1.1 µM and inactive = higher.

Columns and labels:
Experiment in all cases: cells
Assay type in all cases: functional
[1] = test system: SN12K1; settings: Homo sapiens
[2] = test system: P388/ADR; settings: Mus musculus
[3] = test system: P388; settings: Mus musculus;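 further: compound exposure lasted 48 hours before growth was measured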

Measured: GI50

COc1cc2c(c(OC)c1OC)-c1ccc(OC)c(=O)cc1[C@@H](N)CC2 [CITOSTAL]
active: [1] 29 nM | [2] 167 nM | [3] 64 nM
